The list shows a part of the results, in another mix than the full data. The list includes weakly bound sequences.
Target: T1, GST-Co-NF-kB (UniProt F1ARL5)
T1 sequence: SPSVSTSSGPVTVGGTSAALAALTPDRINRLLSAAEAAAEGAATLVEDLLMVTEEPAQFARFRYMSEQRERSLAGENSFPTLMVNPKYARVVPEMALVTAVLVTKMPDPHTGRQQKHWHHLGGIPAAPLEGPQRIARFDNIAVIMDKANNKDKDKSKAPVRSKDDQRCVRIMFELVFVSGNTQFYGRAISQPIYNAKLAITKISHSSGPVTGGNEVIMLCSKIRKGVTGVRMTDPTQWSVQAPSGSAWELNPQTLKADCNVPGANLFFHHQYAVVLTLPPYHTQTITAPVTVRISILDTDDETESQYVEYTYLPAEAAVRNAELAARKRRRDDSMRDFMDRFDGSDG
Experiment: protein-binding microarray (PBM)
Settings: PBM: ~300 nM protein, 6 mM HEPES pH 7.8, 80 mM KCl, 0.5 mM EDTA, 0.5 mM EGTA, 6% glycerol, 35 ng/ul poly-dIdC, 1% milk, 1 h, room temperature; high values mean tight binding; double strand, one strand shown

Row | Sequence | binding signal [z-score]
1 | CCGATTAACATCATCCGCCCTCCTGATGTTAATCGGGTCTTGATTCGCTTGACGCTGCTG | 0.873
2 | CCGATTAACATCAATTCTAGTGGTGATGTTAATCGGGTCTTGATTCGCTTGACGCTGCTG | 0.767
3 | CCGATTAACATCAGAACGGTTAATGATGTTAATCGGGTCTTGATTCGCTTGACGCTGCTG | 0.446
4 | CCGATTAACATCAACTCAGTTACTGATGTTAATCGGGTCTTGATTCGCTTGACGCTGCTG | -0.317
5 | CCGATTAACATCACAGCGAATCCTGATGTTAATCGGGTCTTGATTCGCTTGACGCTGCTG | -0.704
6 | CCGATTAACATCAACAAATTTCCTGATGTTAATCGGGTCTTGATTCGCTTGACGCTGCTG | 0.131
7 | CCGATTAACATCAGACAAGTTGGTGATGTTAATCGGGTCTTGATTCGCTTGACGCTGCTG | -0.575
8 | CCGATTAACATCATCCCTCTGAATGATGTTAATCGGGTCTTGATTCGCTTGACGCTGCTG | 0.23
9 | CCGATTAACATCAGGAAAGTTCCTGATGTTAATCGGGTCTTGATTCGCTTGACGCTGCTG | -0.572
10 | CCGATTAACATCAATTGCTGTAATGATGTTAATCGGGTCTTGATTCGCTTGACGCTGCTG | 0.677
11 | CCGATTAACATCAAATTTCCTAATGATGTTAATCGGGTCTTGATTCGCTTGACGCTGCTG | 0.251
12 | CCGATTAACATCACATGGCGCTGTGATGTTAATCGGGTCTTGATTCGCTTGACGCTGCTG | -0.672
13 | CCGATTAACATCAGGGTTCAGGCTGATGTTAATCGGGTCTTGATTCGCTTGACGCTGCTG | -0.633
14 | CCGATTAACATCAGGAATAAACATGATGTTAATCGGGTCTTGATTCGCTTGACGCTGCTG | -0.313
15 | CCGATTAACATCAGTTATCAGTATGATGTTAATCGGGTCTTGATTCGCTTGACGCTGCTG | 0.128
16 | CCGATTAACATCAACCTCAGCGCTGATGTTAATCGGGTCTTGATTCGCTTGACGCTGCTG | -0.26
17 | CCGATTAACATCAACGCTGTCCTTGATGTTAATCGGGTCTTGATTCGCTTGACGCTGCTG | -0.171
18 | CCGATTAACATCAATCGGTCTACTGATGTTAATCGGGTCTTGATTCGCTTGACGCTGCTG | 0.0423
19 | CCGATTAACATCAGTCCGTATTATGATGTTAATCGGGTCTTGATTCGCTTGACGCTGCTG | 0.0673
20 | CCGATTAACATCACCATGATCGATGATGTTAATCGGGTCTTGATTCGCTTGACGCTGCTG | 0.193

Row | Sequence | binding signal [z-score]
21 | CCGATTAACATCACGCCACACACTGATGTTAATCGGGTCTTGATTCGCTTGACGCTGCTG | 0.301
22 | CCGATTAACATCACTCAAGGTTTTGATGTTAATCGGGTCTTGATTCGCTTGACGCTGCTG | -0.0699
23 | CCGATTAACATCAGAATCTTTGGTGATGTTAATCGGGTCTTGATTCGCTTGACGCTGCTG | 0.0687
24 | CCGATTAACATCAGCCGCCTACCTGATGTTAATCGGGTCTTGATTCGCTTGACGCTGCTG | -0.662
25 | CCGATTAACATCACAATAAAATGTGATGTTAATCGGGTCTTGATTCGCTTGACGCTGCTG | -0.545
26 | CCGATTAACATCATCTGCCAGCATGATGTTAATCGGGTCTTGATTCGCTTGACGCTGCTG | -0.186
27 | CCGATTAACATCATCGGTTAGTGTGATGTTAATCGGGTCTTGATTCGCTTGACGCTGCTG | 0.244
28 | CCGATTAACATCACGTAACTTGATGATGTTAATCGGGTCTTGATTCGCTTGACGCTGCTG | -0.43
29 | CCGATTAACATCATACTCGCCGATGATGTTAATCGGGTCTTGATTCGCTTGACGCTGCTG | -0.0711
30 | CCGATTAACATCAAGAGTTTTCCTGATGTTAATCGGGTCTTGATTCGCTTGACGCTGCTG | -0.218
31 | CCGATTAACATCAGTGCGCGTGTTGATGTTAATCGGGTCTTGATTCGCTTGACGCTGCTG | -0.207
32 | CCGATTAACATCATCTCCAGGTCTGATGTTAATCGGGTCTTGATTCGCTTGACGCTGCTG | -0.663
33 | CCGATTAACATCACTTCTAACATTGATGTTAATCGGGTCTTGATTCGCTTGACGCTGCTG | -0.218
34 | CCGATTAACATCAGATAGGTACTTGATGTTAATCGGGTCTTGATTCGCTTGACGCTGCTG | -0.643
35 | CCGATTAACATCACCAGGAAAGTTGATGTTAATCGGGTCTTGATTCGCTTGACGCTGCTG | 0.462
36 | CCGATTAACATCAAGGAATTGCCTGATGTTAATCGGGTCTTGATTCGCTTGACGCTGCTG | 0.116
37 | CCGATTAACATCATGTACGCTGCTGATGTTAATCGGGTCTTGATTCGCTTGACGCTGCTG | -0.318
38 | CCGATTAACATCATCTGTGAGCCTGATGTTAATCGGGTCTTGATTCGCTTGACGCTGCTG | -0.241
39 | CCGATTAACATCATCTTTTTACTTGATGTTAATCGGGTCTTGATTCGCTTGACGCTGCTG | 0.986
40 | CCGATTAACATCACTGGTTGCTATGATGTTAATCGGGTCTTGATTCGCTTGACGCTGCTG | 0.625

Target: T2, GST-Dm-Relish (UniProt Q94527)
T2 sequence: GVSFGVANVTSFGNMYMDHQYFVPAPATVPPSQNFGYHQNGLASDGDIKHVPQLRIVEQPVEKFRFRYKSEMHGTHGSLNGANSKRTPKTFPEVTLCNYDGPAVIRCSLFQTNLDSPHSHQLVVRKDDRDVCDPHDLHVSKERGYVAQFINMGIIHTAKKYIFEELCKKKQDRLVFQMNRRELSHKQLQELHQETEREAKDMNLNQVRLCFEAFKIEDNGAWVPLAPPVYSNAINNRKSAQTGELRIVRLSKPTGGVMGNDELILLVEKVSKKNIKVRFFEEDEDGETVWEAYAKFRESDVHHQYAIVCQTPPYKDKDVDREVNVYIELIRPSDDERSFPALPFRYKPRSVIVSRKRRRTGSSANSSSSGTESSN
Experiment: protein-binding microarray (PBM)
Settings: PBM: ~300 nM protein, 6 mM HEPES pH 7.8, 80 mM KCl, 0.5 mM EDTA, 0.5 mM EGTA, 6% glycerol, 35 ng/ul poly-dIdC, 1% milk, 1 h, room temperature; Ap Aiptasia and Nv Nematostella (sea anemones) / Co Capsaspora / Aq Amphimedon (sponge) / Dm Drosophila / Hu human; RHD is the Rel homology domain; high values mean tight binding; most listed sequences are background and not binding sites; double strand, one strand shown

Row | Sequence | binding signal [z-score]
41 | CCGATTAACATCATCCGCCCTCCTGATGTTAATCGGGTCTTGATTCGCTTGACGCTGCTG | -0.612
42 | CCGATTAACATCAATTCTAGTGGTGATGTTAATCGGGTCTTGATTCGCTTGACGCTGCTG | 0.153
43 | CCGATTAACATCAGAACGGTTAATGATGTTAATCGGGTCTTGATTCGCTTGACGCTGCTG | -0.456
44 | CCGATTAACATCAACTCAGTTACTGATGTTAATCGGGTCTTGATTCGCTTGACGCTGCTG | -0.2
45 | CCGATTAACATCACAGCGAATCCTGATGTTAATCGGGTCTTGATTCGCTTGACGCTGCTG | -0.0535
46 | CCGATTAACATCAACAAATTTCCTGATGTTAATCGGGTCTTGATTCGCTTGACGCTGCTG | 0.427
47 | CCGATTAACATCAGACAAGTTGGTGATGTTAATCGGGTCTTGATTCGCTTGACGCTGCTG | 0.0614
48 | CCGATTAACATCATCCCTCTGAATGATGTTAATCGGGTCTTGATTCGCTTGACGCTGCTG | -0.378
49 | CCGATTAACATCAGGAAAGTTCCTGATGTTAATCGGGTCTTGATTCGCTTGACGCTGCTG | 0.922
50 | CCGATTAACATCAATTGCTGTAATGATGTTAATCGGGTCTTGATTCGCTTGACGCTGCTG | -0.574
51 | CCGATTAACATCAAATTTCCTAATGATGTTAATCGGGTCTTGATTCGCTTGACGCTGCTG | 0.00363
52 | CCGATTAACATCACATGGCGCTGTGATGTTAATCGGGTCTTGATTCGCTTGACGCTGCTG | 0.573
53 | CCGATTAACATCAGGGTTCAGGCTGATGTTAATCGGGTCTTGATTCGCTTGACGCTGCTG | 0.424
54 | CCGATTAACATCAGGAATAAACATGATGTTAATCGGGTCTTGATTCGCTTGACGCTGCTG | 0.112
55 | CCGATTAACATCAGTTATCAGTATGATGTTAATCGGGTCTTGATTCGCTTGACGCTGCTG | -0.214
56 | CCGATTAACATCAACCTCAGCGCTGATGTTAATCGGGTCTTGATTCGCTTGACGCTGCTG | -0.485
57 | CCGATTAACATCAACGCTGTCCTTGATGTTAATCGGGTCTTGATTCGCTTGACGCTGCTG | -0.688
58 | CCGATTAACATCAATCGGTCTACTGATGTTAATCGGGTCTTGATTCGCTTGACGCTGCTG | -1.19
59 | CCGATTAACATCAGTCCGTATTATGATGTTAATCGGGTCTTGATTCGCTTGACGCTGCTG | 0.0974
60 | CCGATTAACATCACCATGATCGATGATGTTAATCGGGTCTTGATTCGCTTGACGCTGCTG | -0.0994

Row | Sequence | binding signal [z-score]
61 | CCGATTAACATCACGCCACACACTGATGTTAATCGGGTCTTGATTCGCTTGACGCTGCTG | 0.442
62 | CCGATTAACATCACTCAAGGTTTTGATGTTAATCGGGTCTTGATTCGCTTGACGCTGCTG | -0.479
63 | CCGATTAACATCAGAATCTTTGGTGATGTTAATCGGGTCTTGATTCGCTTGACGCTGCTG | -0.228
64 | CCGATTAACATCAGCCGCCTACCTGATGTTAATCGGGTCTTGATTCGCTTGACGCTGCTG | -0.616
65 | CCGATTAACATCACAATAAAATGTGATGTTAATCGGGTCTTGATTCGCTTGACGCTGCTG | 0.975
66 | CCGATTAACATCATCTGCCAGCATGATGTTAATCGGGTCTTGATTCGCTTGACGCTGCTG | -0.595
67 | CCGATTAACATCATCGGTTAGTGTGATGTTAATCGGGTCTTGATTCGCTTGACGCTGCTG | 0.612
68 | CCGATTAACATCACGTAACTTGATGATGTTAATCGGGTCTTGATTCGCTTGACGCTGCTG | -0.0427
69 | CCGATTAACATCATACTCGCCGATGATGTTAATCGGGTCTTGATTCGCTTGACGCTGCTG | -1.03
70 | CCGATTAACATCAAGAGTTTTCCTGATGTTAATCGGGTCTTGATTCGCTTGACGCTGCTG | 0.843
71 | CCGATTAACATCAGTGCGCGTGTTGATGTTAATCGGGTCTTGATTCGCTTGACGCTGCTG | -0.288
72 | CCGATTAACATCATCTCCAGGTCTGATGTTAATCGGGTCTTGATTCGCTTGACGCTGCTG | -1.22
73 | CCGATTAACATCACTTCTAACATTGATGTTAATCGGGTCTTGATTCGCTTGACGCTGCTG | -0.309
74 | CCGATTAACATCAGATAGGTACTTGATGTTAATCGGGTCTTGATTCGCTTGACGCTGCTG | 0.686
75 | CCGATTAACATCACCAGGAAAGTTGATGTTAATCGGGTCTTGATTCGCTTGACGCTGCTG | 0.393
76 | CCGATTAACATCAAGGAATTGCCTGATGTTAATCGGGTCTTGATTCGCTTGACGCTGCTG | 0.978
77 | CCGATTAACATCATGTACGCTGCTGATGTTAATCGGGTCTTGATTCGCTTGACGCTGCTG | -0.521
78 | CCGATTAACATCATCTGTGAGCCTGATGTTAATCGGGTCTTGATTCGCTTGACGCTGCTG | -0.873
79 | CCGATTAACATCATCTTTTTACTTGATGTTAATCGGGTCTTGATTCGCTTGACGCTGCTG | 0.859
80 | CCGATTAACATCACTGGTTGCTATGATGTTAATCGGGTCTTGATTCGCTTGACGCTGCTG | -0.662

From publication PMC5700166
